± gives the standard deviation of the averaged measurements. This is one part of the list.

The values below come from the supplement of paper PMC11417369.

This experiment has as its system PfAP2-I AP2 domain 3 (GST-tagged). Description: gcPBM binding intensity (ln(normalized median fluorescence intensity)); higher = stronger DNA binding. In short, it runs like this: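 GST-fused DNA-binding domains of P. falciparum, expressed in E. coli, were applied at about 25 μg on average for 1 h to an Agilent 4 × 180k array of primer-extended double-stranded 36-bp intergenic genomic probes and negative controls. Binding intensity is the highest Masliner-normalised natural-log median intensity across replicate spots of either probe orientation, measured with Alexa488 anti-GST antibody and a 488 nm scan.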
As for “CACTTCATAAAAATTGCACACATATAATAATGTACA [CACACA_site8692]”, the “gcPBM binding intensity (ln)” value stood at 8.53 ± 0.32.

Turning to “ACAATGAAATATTCATGTACATATAAATAATAGTGT [XGTACX_site3762]”, the “gcPBM binding intensity (ln)” value stood at 7.93 ± 0.42.

Regarding “TTTTACACTTTTTTTTGTACACACTAAAAAGATTAA [XGTACX_site8407]”, the “gcPBM binding intensity (ln)” value amounted to 8.26 ± 0.39.

In the case of “CAAATCATATATAGCACACAAATTCTTTATTATTAT [CACACA_site2815]”, the “gcPBM binding intensity (ln)” value stood at 8.52 ± 0.13.

In the case of “AAAGGTTCATAAAAATGTACATAATTATTTACATGT [XGTACX_site2722]”, the “gcPBM binding intensity (ln)” value was 7.78 ± 0.61.

On to “CTGATCCACATTTATACACACCTCGGTTTGTAGAGA [CACACA_site4393]”, for which the “gcPBM binding intensity (ln)” value worked out at 7.76 ± 0.54.

On to “AAAATATATAATATTTGTACATATTGATGGCAACAG [XGTACX_site6454]”, for which the “gcPBM binding intensity (ln)” value was found to be 7.82 ± 0.48.

As for “AATAAAAATATATCCACACACATATATATATATGTA [CACACA_site576]”, the “gcPBM binding intensity (ln)” value was determined as 7.75 ± 0.35.

For the sequence “ATATGAATATATATATGTACTAATTAGTAGTTTACG [XGTACX_site6273]”, the “gcPBM binding intensity (ln)” value stood at 8.06 ± 0.45.

Consider “AGAAATTTACAAATACGTACACACATATATATATAT [XGTACX_site3141]”, for which the “gcPBM binding intensity (ln)” value was found to be 9.68 ± 0.51.

Turning to “GAAGATATGTAAAATTGTACATATTATTTTATTTTA [XGTACX_site5302]”, the “gcPBM binding intensity (ln)” value was determined as 7.31 ± 0.44.

As for TCATAACAACTTTGTGTGCACATAAAACATGTATAT, the “gcPBM binding intensity (ln)” value turned out to be 10.3 ± 0.42.

Take “TATAAGACATGATATATACACACCTTGTTTTAATTT [CACACA_site2266]”: the “gcPBM binding intensity (ln)” value is 7.56 ± 0.59.

Take “TTTTTTTTTTCATTCACACAAAAAAAAAAAATTTAT [CACACA_site5921]”: the “gcPBM binding intensity (ln)” value was 7.84 ± 0.43.

On to “ATTCAAAATTATAGGTGTACGTATTTTTTTTTTTTT [XGTACX_site7177]”, for which the “gcPBM binding intensity (ln)” value worked out at 8.12 ± 0.38.

Regarding “TAAATTTATAAATCACGTACATATTTATTTATATTT [XGTACX_site4532]”, the “gcPBM binding intensity (ln)” value came out at 7.63 ± 0.35.

Regarding “AGATGATATAATGGCACACAAATATTTTATTATAAA [CACACA_site3553]”, the “gcPBM binding intensity (ln)” value is 8.09 ± 0.38.

Take ATAATTTCATAATACGTGCACATAATATATAAAAAA: the “gcPBM binding intensity (ln)” value amounted to 11.385 ± 0.007.

For “TACTATTTAAAATATGAACACACATTATTTGTTTTA [CACACA_site8870]”, the “gcPBM binding intensity (ln)” value came to 7.47 ± 0.47.

As for “CACAAAAATAAACACACACACATATATATTTATTAT [CACACA_site5923]”, the “gcPBM binding intensity (ln)” value was 7.69 ± 0.41.

Regarding “GGAAACTAAAGGAATAAAACTATGGAAATTAATTAA [CACACA_negctrl_site1647]”, the “gcPBM binding intensity (ln)” value stood at 7.41 ± 0.77.

As for “TAAATTAAAAGACACACACACAAAAAAAAAAAAAAA [CACACA_site7131]”, the “gcPBM binding intensity (ln)” value came out at 8.06 ± 0.39.

As to “ATATATATATGTAAGAGTACACAAAAATATGTATGT [XGTACX_site4335]”, the “gcPBM binding intensity (ln)” value was 9.04 ± 0.15.

As to “TTTTGTAGATATGACTGTACATATTTTATACATAAC [XGTACX_site971]”, the “gcPBM binding intensity (ln)” value turned out to be 7.81 ± 0.47.

In the case of “AAAAAATAAATAAATACACACAAATATATATATATA [CACACA_site2543]”, the “gcPBM binding intensity (ln)” value was 9.24 ± 0.25.

Regarding “TAATATGTATATAAAAGTACAGACGATTATAATTAT [XGTACX_site173]”, the “gcPBM binding intensity (ln)” value worked out at 7.91 ± 0.33.

For the sequence “TGGTAATCCACATACACACACACATACACATATATA [CACACA_site2727]”, the “gcPBM binding intensity (ln)” value was determined as 8.24 ± 0.38.

For the sequence “AAGAAAAAAAAAATTACACACTGCGCAGATACACAA [CACACA_site1289]”, the “gcPBM binding intensity (ln)” value worked out at 8.04 ± 0.5.

For “CTTATATATTGCCCTTCACACACACCCATATATATA [CACACA_site8795]”, the “gcPBM binding intensity (ln)” value came out at 9.07 ± 0.35.

Regarding “AAGTATGGAAAGGAATATAAATTAATACTTTCATTG [XGTACX_negctrl_site131]”, the “gcPBM binding intensity (ln)” value was 7.44 ± 0.73.

In the case of “TACAAAAAGAATGAAAAATATATAATAAAAATAAAA [XGTACX_negctrl_site159]”, the “gcPBM binding intensity (ln)” value was 7.61 ± 0.54.

In the case of “AAGACAACATAAATATGTACATATATTTATTATTTT [XGTACX_site1792]”, the “gcPBM binding intensity (ln)” value stood at 7.61 ± 0.35.

Consider “CACATACCTATATACACACACAAAATAATAAAATAA [CACACA_site7150]”, for which the “gcPBM binding intensity (ln)” value was determined as 7.93 ± 0.15.

For “TATATATATATATTGACACACATGTATTTCAATATT [CACACA_site2832]”, the “gcPBM binding intensity (ln)” value turned out to be 9.27 ± 0.27.

In the case of “AGAATGGATTAGCTAGCACACACAAAAAAAAAAAAA [CACACA_site8995]”, the “gcPBM binding intensity (ln)” value was found to be 7.97 ± 0.67.

With “ACTAATATTTTATAAAGTACAAATTAATAAAATTCA [XGTACX_site5817]”, the “gcPBM binding intensity (ln)” value worked out at 7.58 ± 0.12.

On to GTCTAAAAATAAAAAGTGCATTTGTTTAATATTTTG, for which the “gcPBM binding intensity (ln)” value came to 10.3 ± 0.14.

Consider “ATTAAAACAAATATGTGTACATAAAAATATATATAT [XGTACX_site8394]”, for which the “gcPBM binding intensity (ln)” value is 8.69 ± 0.33.

With “TATTATTATTATTATTTTAAAAGAAATAAAAATATG [XGTACX_negctrl_site119]”, the “gcPBM binding intensity (ln)” value was 8.03 ± 0.82.

On to “TGATTGTATTAAAATGCACACATATCAAGAGGAATT [CACACA_site7985]”, for which the “gcPBM binding intensity (ln)” value was 8.955 ± 0.007.

For the sequence “TTAATTTTTTTTTTTTGTACTCATATGTAATTCATC [XGTACX_site3071]”, the “gcPBM binding intensity (ln)” value was 7.88 ± 0.27.

Consider “TCGATTAAAACACAAAAATATAAATACATTGATAAA [TGCATGCA_negctrl_site523]”, for which the “gcPBM binding intensity (ln)” value was 7.4 ± 0.52.

Consider “TTAATAAATATGTTTACACACGAAAATACATTTTTT [CACACA_site8245]”, for which the “gcPBM binding intensity (ln)” value stood at 7.71 ± 0.48.

On to “TTAAAAGTTATGGATACACACATATAAATATAGATT [CACACA_site7175]”, for which the “gcPBM binding intensity (ln)” value is 7.57 ± 0.42.

Consider “ATTTTAATTTTTTAAGTATTATATGAATATTTATTA [TGCATGCA_negctrl_site142]”, for which the “gcPBM binding intensity (ln)” value amounted to 7.26 ± 0.38.

For “CACACGCACGAACACACACACACACGCGCACATATA [CACACA_site6304]”, the “gcPBM binding intensity (ln)” value came to 8.57 ± 0.43.

“TAATTTTCATAATTTTGTACTTAACGTTTTACCTTG [XGTACX_site8048]”: the “gcPBM binding intensity (ln)” value is 7.57 ± 0.73.

For the sequence “ACATATATATATATATATATATATATATATTCTTAA [CACACA_negctrl_site930]”, the “gcPBM binding intensity (ln)” value was 8.52 ± 0.27.

Consider “TTACTTTAACCTTCTCGTACTTATTTACTTTATTCT [XGTACX_site7801]”, for which the “gcPBM binding intensity (ln)” value came out at 8 ± 0.73.

Turning to “TTTTATTATTCTTCTCTCTTATATATATATATATAT [CACACA_negctrl_site646]”, the “gcPBM binding intensity (ln)” value came to 9.2 ± 0.79.

Regarding “TTTCAAAGGAAATGGTGTACACAATTTTTCCTTTTT [XGTACX_site2340]”, the “gcPBM binding intensity (ln)” value was 7.66 ± 0.41.

On to “ACTGTGGTATAAAGTTGTACATGTTTTTATATATTT [XGTACX_site5257]”, for which the “gcPBM binding intensity (ln)” value turned out to be 8.09 ± 0.49.

With “TACTTTTATATGAATACACACAGGAATATATATATG [CACACA_site3568]”, the “gcPBM binding intensity (ln)” value was found to be 7.75 ± 0.48.

Consider “ATAACATAGGCAATCACACATATCATTAAGGTGTCA [CACACA_site5233]”, for which the “gcPBM binding intensity (ln)” value came out at 7.53 ± 0.59.

Regarding “GTGCATAAATCATACACACACACATATATAAATATA [CACACA_site7188]”, the “gcPBM binding intensity (ln)” value was 10.5 ± 0.65.

Take “AAAGTTTTTATAAAAAAAAAAATAAATACCATATAT [XGTACX_negctrl_site113]”: the “gcPBM binding intensity (ln)” value worked out at 7.87 ± 0.64.

On to “GTGTTTTTATGTGAATGTACATATTTACTATCACAC [XGTACX_site2388]”, for which the “gcPBM binding intensity (ln)” value came to 8.44 ± 0.33.
